# Experimental data as given in PubChem BioAssay AID1645882 (National Center for Advancing Translational Sciences (NCATS), 2021).
# In all, about 16,000 compounds went through this assay and about 120 (0.75%) were called active. Inconclusive results (about 4%) are left out. The call rests on the fitted dose curve; in most records, active means well fitted inhibition curve with a large enough effect; inconclusive means small, poorly fitted or top-dose-only effect; inactive means no such curve, though single readings can be large or run the other way. The list shows a part of the results.
# Molecular target: Rap guanine nucleotide exchange factor 3 (Homo sapiens) (UniProt O95398)
# Assay: Validation qHTS for antagonist of cAMP-regulated guanine nucleotide exchange factor 3 (EPAC1); further: nearly all actives have a fitted effect of over 75% in size
# Details: EPAC1 Rap1B-BODIPY-GDP exchange, fluorescence; series mostly up to 150 µM; activity change, negative = inhibition: at the top concentration
# Excerpt: Assay Provider (PI): Xiaodong Cheng Ph.D.
# The University of Texas Medical Branch, […], TX
# In multi-cellular eukaryotic organisms, the effects of cAMP are transduced by two ubiquitously-expressed intracellular cAMP receptors, the classic protein kinase A/cAMP-dependent protein kinase (PKA/cAPK) and the more recently discovered exchange protein directly activated by cAMP/cAMP-regulated guanine nucleotide exchange factor (EPAC/cAMP-GEF). Both PKA and EPAC are ubiquitously expressed in all tissues, and an increase in intracellular cAMP levels will lead to the activation of both PKA and EPAC. Therefore, careful dissections of the individual role and relative contribution of EPAC and PKA within the overall cAMP signaling in various model systems are critical for further elucidating the mechanism of cAMP signaling. To date no EPAC-specific antagonists and agonist, as well as isoform-specific agonists have been reported, and developing EPAC-specific pharmacological probes to determine the physiological functions that EPAC play in the overall cAMP-mediated signaling remains a major challenge within the research field. Furthermore, identified regulators of EPAC may lead to new mechanism-based therapeutic strategies specifically targeting the EPAC / cAMP-signaling components as EPAC has been implicated to play important roles in major human pathological conditions such as diabetes, heart disease, and cancer.
# This qHTS will be used to screen the Molecular Libraries Small Molecule Repository (MLSMR) as a concentration-titration series using the NCGC unique quantitative screening (qHTS) platform to find activators for EPAC1. In addition, this assay will also be used as a counterscreen for the EPAC2 qHTS. This fluorescent based assay is developed and validated for EPAC1 that measures exchange using EPAC effector Rap1 complex with BODIPY-GDP, a GDP analog with a tethered fluorophores. Activators are identified by monitoring the change in fluorescence signal as the exchanged free BODIPY-GDP has a reduced fluorescence compared to Rap1-bound BODIPY-GDP. Increase in signal (activation) is the desired outcome for the EPAC1 agonist while no activity in this assay is desired for the EPAC2 agonist counterscreen.
# [1] de Rooij, J., Zwartkruis, F. J., Verheijen, M. H., Cool, R. H., Nijman, S. M., Wittinghofer, A., and Bos, J.L. (1998) Nature 396, 474-477.
# Briefly, three uL of reagents (100 nM EPAC1, 250 nM RAP1B-BODIPY-GDP, 50 uM GDP) were dispensed into a 1536-well Greiner black solid-bottom medium binding assay plate. Controls and test compounds (23 nL) were transferred to the plate via a Kalypsys pin tool equipped with a 1536-pin array. The plates were centrifuged at 1,000 rpm for 15 seconds followed by 5 minute incubation at room temperature. The assay plates were read at 5 minute intervals for 30 minutes in the ViewLux plate reader using 480nm excitation and 540nm emission filters. The results were normalized to the […] positive control ATA and DMSO.
# Potency means the concentration at half of the fitted maximal effect.
# Sequence of UniProt O95398 (O95398 whole entry, looked up): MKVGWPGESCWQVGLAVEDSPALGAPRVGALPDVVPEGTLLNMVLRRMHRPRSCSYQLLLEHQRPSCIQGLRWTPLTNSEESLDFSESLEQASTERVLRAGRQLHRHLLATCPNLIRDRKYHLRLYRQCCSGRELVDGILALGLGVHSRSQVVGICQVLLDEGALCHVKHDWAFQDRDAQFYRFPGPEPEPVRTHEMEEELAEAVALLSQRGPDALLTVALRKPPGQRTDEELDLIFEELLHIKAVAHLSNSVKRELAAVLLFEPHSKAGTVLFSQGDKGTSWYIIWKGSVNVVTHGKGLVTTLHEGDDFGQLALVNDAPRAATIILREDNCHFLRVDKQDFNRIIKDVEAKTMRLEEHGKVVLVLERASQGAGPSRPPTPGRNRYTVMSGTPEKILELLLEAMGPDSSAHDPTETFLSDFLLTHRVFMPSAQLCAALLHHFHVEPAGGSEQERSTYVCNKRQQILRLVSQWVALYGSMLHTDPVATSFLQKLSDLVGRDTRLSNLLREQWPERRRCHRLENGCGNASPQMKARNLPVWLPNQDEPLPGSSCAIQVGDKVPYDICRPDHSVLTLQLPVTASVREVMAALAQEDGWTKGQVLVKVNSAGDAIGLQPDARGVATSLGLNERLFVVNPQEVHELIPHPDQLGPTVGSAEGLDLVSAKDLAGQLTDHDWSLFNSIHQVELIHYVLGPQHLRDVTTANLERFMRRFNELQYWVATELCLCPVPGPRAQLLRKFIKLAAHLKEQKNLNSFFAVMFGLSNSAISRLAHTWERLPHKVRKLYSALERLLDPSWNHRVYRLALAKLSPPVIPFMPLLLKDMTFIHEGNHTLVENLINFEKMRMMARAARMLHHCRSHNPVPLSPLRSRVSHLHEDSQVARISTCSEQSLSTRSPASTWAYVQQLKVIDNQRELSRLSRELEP
SMILES,"activity change, negative = inhibition",Potency
CC(C)OC(=O)Nc1ccc2nc(-c3cscn3)[nH]c2c1,inactive: 13.8%,
COc1cccc2c(=O)c3ccoc3n(C)c12,inactive: 5.74%,
CN1CCCC1CCO[C@@](C)(c1ccccc1)c1ccc(Cl)cc1 (stereo partly drawn),inactive: 10%,
CC(=O)OC1CCC2(C)C(=CCC3C2CCC2(C)C3C[C@@H]3O[C@]32C(C)=O)C1 (stereo partly drawn),inactive: 4.16%,
CN(Cc1ccco1)c1ncnc2ccc(-c3cccc(NS(C)(=O)=O)c3)cc12,inactive: 1.98%,
CC1OC(OCC2OC(Oc3c(-c4ccc(O)c(O)c4)oc4cc(O)cc(O)c4c3=O)C(O)C(O)C2O)[C@@H](O)C(O)C1O (stereo partly drawn),inactive: -17.9%,
Cn1cc(C2=C(c3ccc(Cl)cc3Cl)C(=O)NC2=O)c2ccccc21,inactive,
O=c1c(CCc2ccccc2)nc2cnc(Nc3ccccc3)nc2n1C[C@H]1CCCO1,inactive: 13.2%,
CN(C)CC(C)(C)CNC(=O)c1cnn(-c2nccc(-c3ccc4c(c3)OCO4)n2)c1-c1ccco1,inactive: 25.7%,
Cn1c(SCC2CCCO2)nnc1C1CCN(Cc2ccccc2O)CC1 (stereo not drawn),inactive: 13.1%,
COc1ccc(-c2c(-c3cc(OC)c(OC)c(OC)c3)noc2C)cn1,inactive: 1.73%,
CC(=O)N1CCC2(CCN(Cc3cc(C(F)(F)F)cc(C(F)(F)F)c3)CC2)CC1,inactive: 1.58%,
CCC[C@H]1COCCS(=O)(=O)N1Cc1cccc(F)c1,inactive: -10.5%,
O=C(Oc1ccccc1)c1cccc(C(=O)Oc2ccccc2)c1,inactive: 32.9% [at 320 µM],
Cc1ccc2c(/C=C/c3c[nH]c4ccccc34)ccnc2c1C,inactive: 5.61%,
CC(=O)Nc1ccc(S(=O)(=O)Nc2ccc([N+](=O)[O-])cc2)cc1,inactive: 15.9%,
CN(C)C(=O)c1ccc(-c2ccc3ncnc(NCc4ccccc4)c3c2)cc1,inactive: 3.59%,
O=C(c1ccncc1)N1CCC[C@@]2(CCN(Cc3cc(C(F)(F)F)cc(C(F)(F)F)c3)C2)C1,inactive: -19.2%,
Cc1noc(C)c1-c1nccc(N2CCOCC2)n1,inactive: 8.6%,
CCc1cc(C(N)=S)ccn1,inactive,
Cc1cc(=S)[nH]c2ccccc12,inactive: 16.7%,

SMILES,"activity change, negative = inhibition",Potency
CN(C)C(=O)c1ccc(-c2cncnc2NC2CCNCC2)cc1,inactive: -11.3%,
O=C(CCc1c[nH]c2ccccc12)N1CCC(n2c(C3CCCO3)nc3cc(C(F)(F)F)ccc32)CC1 (stereo not drawn),inactive: 3.75%,
O=C(c1csnn1)N1CCC2(CC1)CCN(c1cccc(-c3ccccc3)c1)CC2,inactive: 0.228%,
Cc1ccc(S(=O)(=O)NC(=O)NC2CCCCC2)cc1,inactive: 4.4%,
COc1cc2nc(N3CCN(C(=O)OCc4ccccc4)C(C(=O)NC(C)(C)C)C3)nc(N)c2cc1OC (stereo not drawn),inactive: 7.27% [at 75.8 µM],
Cc1noc(C)c1-c1cc(N2CCN(C)CC2)ncn1,inactive: -3.25%,
CC(=O)Nc1c(I)c(NC(C)=O)c(I)c(C(=O)O)c1I,inactive: 31.7%,
Cc1noc(C)c1C(=O)N1CCC2(CC1)CN(C(=O)Nc1cccc(F)c1)C2,inactive: 12.4%,
CC[C@H](C)C(=O)O[C@H]1CCC=C2C=C[C@H](C)[C@H](CC[C@@H]3C[C@H](O)CC(=O)O3)[C@H]21,inactive: -20.1%,
CC(C)(C)NCC(O)CSc1nc(-c2ccc(C(N)=O)s2)cs1 (stereo not drawn),inactive: 7.1%,
Cn1cnc2c(ncn2[C@@H]2O[C@H](CO)[C@@H](O)[C@H]2O)c1=N,inactive: 21.2%,
Cc1cccc(CNc2ccnc(-c3cccnc3)n2)c1,inactive: 3.19%,
NC(=O)c1ncn([C@@H]2O[C@H](CO)[C@@H](O)[C@H]2O)c1O,inactive,
CN(C)C(=O)c1ccc(-c2nccc(N(C)Cc3ccco3)n2)cc1,inactive: 10.4%,
CC(C)C(NC(=O)c1ccoc1)c1nnc2n1CCN(C(=O)/C=C/c1ccc(F)cc1)CC2 (stereo not drawn),inactive: 17.6%,
CCc1nc2cc(C(=O)N3CCCN(C=O)CC3)cc(NC(=O)c3ccccc3OC)c2n1C,inactive: 0.16%,
C[C@H](CCC(=O)O)[C@H]1CC[C@@H]2[C@H]3CC[C@H]4C[C@H](O)CC[C@]4(C)[C@@H]3CC[C@@]21C,inactive: -12.1%,
CN1CCN(C(c2ccccc2)c2ccc(Cl)cc2)CC1 (stereo not drawn),inactive: 17.1% [at 75.8 µM],
CCc1oc2ccccc2c1C(=O)c1cc(I)c(O)c(I)c1,,active: 56.2 µM
COc1ccc(-c2nc3cnc(OC)nc3n(-c3ccccc3)c2=O)cc1,inactive: 8.13%,
CC(C)=CCC/C(C)=C/CC/C(C)=C/CCC(=O)OC/C=C(\C)CCC=C(C)C,inactive: -26.1%,

SMILES,"activity change, negative = inhibition",Potency
Cc1ccc(C(C)C)cc2c(C)ccc1-2,inactive,
COCCn1c(=O)c(-c2cc(F)cc(F)c2)nc2cnc(Oc3cccc(Cl)c3)nc21,inactive: -2.8%,
Cc1cccc(Nc2cc(Cl)nc(SCC(=O)O)n2)c1C,inactive,
CC(C)CN1CCCC2(CCN(C(=O)c3cc(C(F)(F)F)cc(C(F)(F)F)c3)CC2)C1,inactive: -7.73%,
COc1ccccc1-c1cc(-n2ccnc2)ncn1,inactive: 10.7%,
COc1ccc(CC(N)C(=O)NC2C(O)[C@H](n3cnc4c(N(C)C)ncnc43)O[C@@H]2CO)cc1 (stereo partly drawn),inactive: 0.0514%,
O=C(N/N=C/c1ccc([N+](=O)[O-])o1)c1ccc(O)cc1,inactive: 382% [at 75.8 µM],
COc1ccccc1C(=O)O[C@H]1[C@H](Cc2ccccc2)NS(=O)(=O)[C@H]2C[C@@H]3C=C[C@]12O3,inactive: -2.46%,
C=C1Cc2c(Cl)cc3[nH]c4c5c3c2[C@@]2(O)[C@@H]1C[C@@H]2C(C)(C)O[C@H]5[C@@H]1CC[C@@]2(O)[C@@]35O[C@@H]3[C@@H](O)[C@@H](C(=O)O)O[C@H]5CC[C@]2(C)[C@@]41C,inactive: -6.41%,
Cc1c(Cl)cccc1Nc1ncccc1C(=O)O,inactive: 11.9%,
CN(C)c1ccc(/C=C/c2ccc3cc(N(C)C)ccc3n2)cc1,inactive: 11.2%,
Cc1ncc2c(c1CNC(=O)c1ccc3c(c1)OCO3)CCN(C(=O)c1cn3ccccc3n1)C2,inactive: 20.9%,
O=c1onc2n1-c1cc(Br)ccc1OC2,inactive: 9.42% [at 75.8 µM],
O=c1cnc2cnc(Nc3ccccc3)nc2n1CCc1ccccc1,inactive: 20.5%,
Cc1c(C(=O)N(C)C(C)C)sc2ncnc(NCCCN3CCOCC3)c12,inactive: 14.4%,
COC(=O)c1cc(Br)ccc1N(Cc1cc(OC)cc(OC)c1)S(C)(=O)=O,inactive: 8.41%,
Cc1ccc(/C(=C\CN2CCCC2)c2ccccn2)cc1,inactive,
CN1CCCC2(CCN(C(=O)c3cnccn3)CC2)C1,inactive: 21.9%,
COc1ccc(-n2c(=O)c(-c3cccc(Cl)c3)nc3cncnc32)cc1,inactive: 3.97%,
CN(Cc1cccc2ncccc12)C(=O)c1cnn(-c2ncc3c(n2)-c2ccccc2CC3)c1C1CC1,inactive: -12.6%,
CN(C)c1ncc2nc(-c3ccccc3)c(=O)n(-c3ccccc3)c2n1,inactive: 40.8%,
